Reference: publication PMC2918917 (New journal of chemistry = Nouveau journal de chimie, 2010)
Like-named read-outs stand apart in the source and are kept apart here.

Columns and labels:
[1] = target: T1, murine eIF4E (Mus musculus, UniProt P63073); conditions: for ΔG° binding energy: calculated from KAS, ΔG° = −RT ln KAS
[2] = target: T1, murine eIF4E; conditions: cited from earlier work; for KAS cap-eIF4E: equilibrium association constant, data from ref 10

With `Nc1nc2c(ncn2[C@@H]2O[C@H](COP(=O)(O)OP(=O)(O)OP(=O)(O)OC[C@H]3O[C@@H](n4cnc5c(N)ncnc54)[C@H](O)[C@@H]3O)[C@@H](O)[C@H]2O)c(=O)[nH]1` [ApppG] the “ΔG° binding energy” value [1] was > -6.20 kcal/M.

With `COC1C(O)[C@@H](COP(=O)(O)OP(=O)([S-])OP(=O)(O)OP(=O)(O)OC[C@H]2O[C@@H](n3cnc4c(=O)[nH]c(N)nc43)C(O)C2O)O[C@H]1n1c[n+](C)c2c(O)nc(N)nc21` (stereo partly shown) [compound 3, P1-(7,2'-O-dimethylguanosin-5'-yl) P4-guanosin-5'-yl (2-thiotetraphosphate)] the “ΔG° binding energy” value [1] was -11.33 ± 0.02 kcal/M.

In the case of `COC1C(O)C(COP(O)(=S)OP(=O)(O)OP(=O)(O)OCC2OC(n3cnc4c(=O)[nH]c(N)nc43)C(O)C2O)OC1n1c[n+](C)c2c(=O)[nH]c(N)nc21` (stereo not shown) [m2^7,2'-OGpSppG (D1)], the “ΔΔG° difference versus its (D2) counterpart” value ([2]; triphosphate series) is given as 0.59 kcal/mol and the “ΔΔG° difference versus m2^7,2'-OGpppG” value ([2]; triphosphate series) is given as 0.69 kcal/mol.

For `CO[C@@H]1[C@H](O)[C@@H](COP(=O)(O)OP(=O)([O-])OP(=O)(O)OP(=O)(O)OC[C@H]2O[C@@H](n3cnc4c(=O)[nH]c(N)nc43)[C@H](O)[C@@H]2O)O[C@H]1n1c[n+](C)c2c(O)nc(N)nc21` [m2^7,2'-OGppppG], the “ΔG° binding energy” value [1] is given as -10.73 ± 0.04 kcal/M and the “KAS cap-eIF4E” value [2] is given as 99.8 ± 6.0 ^e µM^−1.

In the case of `COC1C(COP(=O)([O-])OP(=O)(O)OP(=O)(O)OP(=O)(O)OP(=O)(O)OCC2OC(n3cnc4c(=O)[nH]c(N)nc43)C(O)C2O)OC(n2c[n+](C)c3c(=O)[nH]c(N)nc32)C1O` (stereo not shown) [m2^7,3'-OGp5G], the “KAS cap-eIF4E” value [2] is given as 299 ± 20 µM⁻¹.

In the case of `CO[C@H]1[C@@H](O)[C@H]([n+]2cn(C)c3c(=O)[nH]c(N)nc32)O[C@@H]1COP(=O)([O-])OP(=O)(O)OP(=O)(O)OC[C@H]1O[C@@H](n2cnc3c(=O)[nH]c(N)nc32)[C@H](O)[C@@H]1O` [m2^7,3'-OGpppG], the “ΔG° binding energy” value [1] is given as -9.40 ± 0.02 kcal/M, the “binding affinity to eIF4E (KAS)” value [2] is given as 10.2 ± 0.3 µM⁻¹ and the “KAS cap-eIF4E” value [2] is given as 10.2 ± 0.3 ^e µM^−1.

With `Cn1c[n+]([C@@H]2O[C@H](COP(=O)(O)OP(=O)([O-])OP(=O)(O)OC[C@H]3O[C@@H](n4cnc5c(=O)[nH]c(N)nc54)[C@H](O)[C@@H]3O)[C@@H](O)[C@H]2O)c2nc(N)[nH]c(=O)c21` [m^7GpppG] the “ΔG° binding energy” value [1] was -9.35 ± 0.03 kcal/M.

For “P1-(7,2'-O-dimethylguanosin-5'-y l ) P4-guanosin-5'-yl (1-thiotetraphosphate) [4a]”, the “ΔG° binding energy” value ([1]; listed as m2^7.2'-OGpSpppG (D1)) was -11.28 ± 0.01 kcal/M, the “ΔG° binding energy difference (lower than that of 4b)” value ([1]; versus 4b) was 0.40 kcal/mol and the “ΔG° binding energy difference (lower than that of m2^7,2'-OGppppG)” value ([1]; versus m2^7,2'-OGppppG) was 0.54 kcal/mol.

With “P1-(7,2'-O-dimethylguanosin-5'-y l ) P4-guanosin-5'-yl (1-thiotetraphosphate) [4b]” the “ΔG° binding energy” value ([1]; listed as m2^7.2'-OGpSpppG (D2)) was -10.87 ± 0.02 kcal/M.

For “P1-(7,2'-O-dimethylguanosin-5'-y l ) P4-guanosin-5'-yl (1-thiotetraphosphate) [compound 4]”, the “ΔG° binding energy” value ([1]; listed as m2^7.2'-OGpSpppG (mix)) was -11.07 ± 0.02 kcal/M.

With “P1-(7,2'-O-dimethylguanosin-5'-y l ) P4-guanosin-5'-yl (3-thiotetraphosphate) [2a]” the “ΔG° binding energy” value ([1]; listed as m2^7.2'-OGpppSpG (D1)) was -10.95 ± 0.01 kcal/M.

In the case of “P1-(7,2'-O-dimethylguanosin-5'-y l ) P4-guanosin-5'-yl (3-thiotetraphosphate) [2b]”, the “ΔG° binding energy” value ([1]; listed as m2^7.2'-OGpppSpG (D2)) is reported as -10.95 ± 0.01 kcal/M.

With “P1-(7,2'-O-dimethylguanosin-5'-y l ) P4-guanosin-5'-yl (3-thiotetraphosphate) [compound 2]” the “ΔG° binding energy” value ([1]; listed as m2^7.2'-OGpppSpG (mix)) was -10.99 ± 0.01 kcal/M.

For “P1-(7,2'-O-dimethylguanosin-5'-y l ) P4-guanosin-5'-yl (4-thiotetraphosphate) [1a]”, the “ΔG° binding energy” value ([1]; listed as m2^7.2'-OGppppSG (D1)) was -10.83 ± 0.03 kcal/M.

With “P1-(7,2'-O-dimethylguanosin-5'-y l ) P4-guanosin-5'-yl (4-thiotetraphosphate) [1b]” the “ΔG° binding energy” value ([1]; listed as m2^7.2'-OGppppSG (D2)) was -10.78 ± 0.03 kcal/M.

In the case of m2^7,3'-OGppCH2pG, the “binding affinity to eIF4E (KAS)” value [2] is given as 4.41 ± 0.2 µM⁻¹.
